# According to PubChem BioAssay AID463173 (ICCB-Longwood Screening Facility, Harvard Medical School, 2010):
# The campaign covered roughly 52,000 compounds. About 4,300 (8.3%) were called active. No stated cut-off is given here; in the data, active means survival mostly below about 52% (no sharp cut-off); inactive means mostly above about 56%. The list shows a part of the results.
# System: DeltatarO mutant
# Assay: S. aureus survival, RN4220 and DeltatarO strains – OD600, teichoic acid synthesis inhibitors, primary screen (AID 463173)
# Conditions: S. aureus RN4220 wild type/DeltatarO growth, OD600, 18 h, hits give low values, screened at 18.75 µg/mL (by protocol)
row,Structure (SMILES),survival
1,COc1ccc2sc(N(Cc3cccnc3)C(=O)CCc3ccccc3)nc2c1,inactive: 109%
2,O=C(COC(=O)c1ccccc1)Nc1ccc2c(c1)OCO2,inactive: 97%
3,Cc1cc2[nH]c(=O)c(=O)[nH]c2cc1S(=O)(=O)N1CCN(c2ccccc2F)CC1,inactive: 78%
4,CC1=C(c2ccc(Cl)cc2)S(=O)(=O)N=C1N1CCN(c2cc(C)ccc2C)CC1,inactive: 106%
5,CC(=O)ONC(=Nc1ccccc1C)c1nonc1N,inactive: 101%
6,CCN(C(=O)C(NS(=O)(=O)c1ccc(Br)s1)c1ccccc1)c1ccc(C)c(C)c1 (stereo not drawn),inactive: 87%
7,CC1(C)CC(=O)c2cc(-c3nc(-c4ccc(F)cc4)cs3)c(=O)[nH]c2C1,inactive: 75%
8,CC(C)c1ccc(-c2noc(C3CCCN(C(=O)Cc4cccs4)C3)n2)cc1 (stereo not drawn),active: 40%
9,Cc1cc(=O)n2nc(N)sc2n1,inactive: 83%
10,COC(=O)c1c(NC(=O)c2ccc(C(C)(C)C)cc2)sc2c1CCC(C)C2 (stereo not drawn),inactive: 85%
11,CCN(C(=O)Cn1nc(Cc2ccncc2)c2ccccc2c1=O)c1ccc(OC)cc1,inactive: 80%
12,COc1cc(C2CC(=O)c3c([nH]c(C(=O)OC4CCCC4)c3C)C2)cc(OC)c1OC (stereo not drawn),active: 51%
13,COCCn1nnnc1CN1CCC(Cc2ccccc2)CC1,inactive: 97%
14,Clc1ccc(-c2cn3cc(Cc4ccccc4)sc3n2)cc1,inactive: 70%
15,O=C(CSc1nc(=O)n(Cc2ccncc2)c2c1CCC2)Nc1cccc(F)c1,inactive: 99%
16,CCOc1ccc(CCNC(=O)c2ccc(CSCc3ccccc3C)o2)cc1OCC,inactive: 112%
17,CC(=O)Nc1ccc(S(=O)(=O)NCC2CCC(C(=O)NCCc3ccc(C)cc3)CC2)cc1 (stereo not drawn),inactive: 86%
18,COc1ccc(NC(=O)Cn2c(-c3ccc(F)cc3)cc(C(C)=O)c2C)c(OC)c1,inactive: 120%
19,O=S(=O)(c1ccccc1)n1nc(-c2ccc(Cl)cc2)nc1NCc1ccccc1,inactive: 52%
20,CC(=O)c1cccc(NC(=O)c2ccc3c(c2)N(Cc2ccc(C)cc2)CCS3)c1,inactive: 79%

row,Structure (SMILES),survival
1,N#C/C(=C\c1ccc(F)cc1)c1nc(-c2ccc(-c3ccccc3)cc2)cs1,inactive: 69%
2,CCCC1=Nc2cc(C(=O)NC3CCCCC3)ccc2Sc2ccc(C)cc21,inactive: 94%
3,COc1cccc(CC(=O)Nc2c(C(=O)N3CCN(c4ccccc4F)CC3)oc3ccccc23)c1,inactive: 92%
4,CCC(=O)N1c2ccccc2CC1C(=O)NCCN1CCN(c2cc(Cl)ccc2C)CC1 (stereo not drawn),active: 52%
5,COc1ccc(C)cc1NC(=O)Cn1cc(S(=O)(=O)N2CCC(C)CC2)c2ccccc2c1=O,inactive: 75%
6,O=C(Cc1ccc(Cl)cc1)Nc1ccc2oc(-c3ccc(F)cc3)nc2c1,inactive: 63%
7,Cc1cc(C)cc(OCC(=O)N2CCC(c3nc4ccccc4o3)CC2)c1,inactive: 79%
8,COC(=O)c1ccccc1NC(=O)C(Cc1ccccc1)N1Cc2ccccc2C1=O (stereo not drawn),inactive: 54%
9,CCOc1ccc(NC(=O)c2c(NCc3cc(OC)c(OC)cc3OC)sc3c2CCCC3)cc1,inactive: 74%
10,CCc1ccc(C2=NN(CCC(=O)NCCc3ccccc3)C(=O)CC2)cc1,inactive: 94%
11,CCc1c(C)c2cc3c(c(C)c2oc1=O)OCN(CCc1ccc(OC)c(OC)c1)C3,inactive: 52%
12,Cc1ccc(-n2cnc3ccccc3c2=O)cc1Cl,inactive: 101%
13,CCOC(=O)C1=C(C)NC(=O)C1CC(=O)O (stereo not drawn),inactive: 84%
14,Cc1cc(C)c2c(n1)sc1c(Cl)ncnc12,inactive: 110%
15,COc1cc2c(cc1OC)C(CC(=O)O)N(C(=O)Nc1cc(OC)c(OC)c(OC)c1)CC2 (stereo not drawn),inactive: 91%
16,Cc1ccc(C)c(N2CCN(CCCNC(=O)c3ccc4nc(N5CCC(C)CC5)sc4c3)CC2)c1,active: 4%
17,Cn1c(SCCN2CCCC2)nnc1-c1ccncc1,inactive: 101%
18,CCCn1c2ccccc2c2cnn(CC(=O)Nc3cc(OC)c(OC)c(OC)c3)c(=O)c21,inactive: 119%
19,CSc1nnc(COc2ccc(Cl)cc2)n1C,inactive: 82%
20,CCC1(C)CC(=O)c2c(ccc3oc(C(=O)Nc4ccc(C(C)=O)cc4)c(C)c23)O1 (stereo not drawn),inactive: 78%

row,Structure (SMILES),survival
1,CCOc1ccc(C(=O)NCCc2csc(-c3cccc(C)c3)n2)cc1,inactive: 94%
2,COc1ccc(C(=O)OCC(=O)c2ccc(C)cc2)cc1OC,inactive: 96%
3,CC(C)CC(=O)Nc1nnc(S(=O)(=O)N2c3ccccc3CC2C)s1 (stereo not drawn),inactive: 75%
4,CC(C)c1ccc(Nc2sc(C(=O)c3ccccc3)c(N)c2S(=O)(=O)c2ccccc2)cc1,inactive: 70%
5,CCc1nc2ccc(C(=O)N3CCN(c4cccc(Cl)c4)CC3)cc2nc1CC,inactive: 82%
6,Cc1ccc(N2CCN(C(=O)Cn3ncc4c([nH]c5ccc(C)cc54)c3=O)CC2)c(C)c1,inactive: 94%
7,CCc1cccc(NC(=O)C(Cc2ccccc2)NS(=O)(=O)c2cccs2)c1 (stereo not drawn),active: 44%
8,CC(=O)c1ccc(Nc2cc(C)nc3nc(Cc4ccccc4)nn23)cc1,inactive: 64%
9,CCOc1nc(NCCO)nc(NCCC2=CCCCC2)n1,inactive: 67%
10,COc1ccc(N(CC(=O)NCCc2ccccc2)S(=O)(=O)c2c(C)nn(C)c2C)cc1,inactive: 109%
11,CC(=O)Nc1ccc(Nc2ccc3cc(S(=O)(=O)N4CCCCC4)ccc3n2)cc1,inactive: 89%
12,O=C(NC1CC(=O)N(c2ccc(Cl)cc2)C1)c1cc2ccccc2o1 (stereo not drawn),active: 52%
13,CCCc1ccc(OCC(=O)Nc2sc3c(c2C(=O)OCC)CCC(C(C)(C)C)C3)cc1 (stereo not drawn),inactive: 125%
14,Nc1cc(=O)nc(SCC(=O)Nc2ccccc2)n1CCc1ccccc1,inactive: 85%
15,CCOCCOC(=O)c1ccc2c(c1)N(Cc1ccccc1C#N)C(=O)c1ccccc1S2(=O)=O,inactive: 99%
16,CCN(c1ccccc1)S(=O)(=O)c1ccc(NC(=O)c2nc(S(C)(=O)=O)ncc2Cl)cc1,active: -1%
17,OC(CNCC1CCCO1)Cn1c2ccccc2c2ccccc21 (stereo not drawn),inactive: 72%
18,CCOc1ccc(CCNC(=O)CCCn2c(=O)c3cccn3c3cccnc32)cc1,inactive: 86%
